Experimental data from the supplement of paper PMC8728848.
Some of the results follow.

Legend:
Test in all cases: glycan array binding signal (z-score within array); higher = stronger binding
Conditions in all cases: glycan notation: IUPAC condensed, linker removed; mutation: N224Q
[1] = target: GlcNAc(b1-2)[GlcNAc(b1-4)]Man(a1-3)[GlcNAc(b1-4)][GlcNAc(b1-2)Man(a1-6)]Man(b1-4)GlcNAc(b1-4)GlcNAc
In short: (§1)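 The Consortium for Functional Glycomics database supplied 3228 glycan arrays, of which those lacking an available protein sequence were dropped. The binding signal, a within-array Z-score, was averaged across arrays of the same protein sequence and across linkers. Negative scores can be read as non-binding.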

[2] = target: GlcNAc(b1-2)[GlcNAc(b1-4)]Man(a1-3)[GlcNAc(b1-4)][GlcNAc(b1-2)[GlcNAc(b1-6)]Man(a1-6)]Man(b1-4)GlcNAc(b1-4)GlcNAc
In short: as §1

[3] = target: GlcNAc(b1-2)[GlcNAc(b1-4)]Man(a1-3)[GlcNAc(b1-4)][GlcNAc(b1-2)[GlcNAc(b1-6)]Man(a1-6)]Man(b1-4)GlcNAc(b1-4)[Fuc(a1-6)]GlcNAc
In short: as §1

[4] = target: GlcNAc(b1-2)[GlcNAc(b1-6)]Man(a1-6)[GlcNAc(b1-2)Man(a1-3)]Man(b1-4)GlcNAc(b1-4)GlcNAc
In short: as §1

[5] = target: GlcNAc(b1-2)[GlcNAc(b1-6)]Man(a1-6)[GlcNAc(b1-2)Man(a1-3)]Man(b1-4)GlcNAc(b1-4)[Fuc(a1-6)]GlcNAc
In short: as §1

[6] = target: GlcNAc(b1-2)[GlcNAc(b1-6)]Man(a1-6)[GlcNAc(b1-4)][GlcNAc(b1-2)Man(a1-3)]Man(b1-4)GlcNAc(b1-4)GlcNAc
In short: as §1

GlcNAc(b1-3)Fuc = target: GlcNAc(b1-3)Fuc
In short: as §1

GlcNAc(b1-3)Gal = target: GlcNAc(b1-3)Gal
In short: as §1

[7] = target: GlcNAc(b1-3)Gal(b1-3)GalNAc
In short: as §1

GlcNAc(b1-3)Gal(b1-4)Glc = target: GlcNAc(b1-3)Gal(b1-4)Glc
In short: as §1

[8] = target: GlcNAc(b1-3)Gal(b1-4)GlcNAc
In short: as §1

[9] = target: GlcNAc(b1-3)Gal(b1-4)GlcNAc(b1-2)Man(a1-3)[GlcNAc(b1-3)Gal(b1-4)GlcNAc(b1-2)Man(a1-6)]Man(b1-4)GlcNAc(b1-4)GlcNAc
In short: as §1

[10] = target: GlcNAc(b1-3)Gal(b1-4)GlcNAc(b1-2)Man(a1-3)[GlcNAc(b1-3)Gal(b1-4)GlcNAc(b1-2)Man(a1-6)]Man(b1-4)GlcNAc(b1-4)[Fuc(a1-6)]GlcNAc
In short: as §1

[11] = target: GlcNAc(b1-3)Gal(b1-4)GlcNAc(b1-2)[GlcNAc(b1-3)Gal(b1-4)GlcNAc(b1-6)]Man(a1-6)[GlcNAc(b1-3)Gal(b1-4)GlcNAc(b1-2)Man(a1-3)]Man(b1-4)GlcNAc(b1-4)GlcNAc
In short: as §1

[12] = target: GlcNAc(b1-3)Gal(b1-4)GlcNAc(b1-3)Gal(b1-4)GlcNAc
In short: as §1

[13] = target: GlcNAc(b1-3)Gal(b1-4)GlcNAc(b1-3)Gal(b1-4)GlcNAc(b1-2)Man(a1-3)[GlcNAc(b1-3)Gal(b1-4)GlcNAc(b1-3)Gal(b1-4)GlcNAc(b1-2)Man(a1-6)]Man(b1-4)GlcNAc(b1-4)GlcNAc
In short: as §1

[14] = target: GlcNAc(b1-3)Gal(b1-4)GlcNAc(b1-3)Gal(b1-4)GlcNAc(b1-2)Man(a1-3)[GlcNAc(b1-3)Gal(b1-4)GlcNAc(b1-3)Gal(b1-4)GlcNAc(b1-2)Man(a1-6)]Man(b1-4)GlcNAc(b1-4)[Fuc(a1-6)]GlcNAc
In short: as §1

[15] = target: GlcNAc(b1-3)Gal(b1-4)GlcNAc(b1-3)Gal(b1-4)GlcNAc(b1-2)[GlcNAc(b1-3)Gal(b1-4)GlcNAc(b1-3)Gal(b1-4)GlcNAc(b1-6)]Man(a1-6)[GlcNAc(b1-3)Gal(b1-4)GlcNAc(b1-3)Gal(b1-4)GlcNAc(b1-2)Man(a1-3)]Man(b1-4)GlcNAc(b1-4)[Fuc(a1-6)]GlcNAc
In short: as §1

[16] = target: GlcNAc(b1-3)Gal(b1-4)GlcNAc(b1-3)Gal(b1-4)GlcNAc(b1-3)Gal(b1-4)GlcNAc(b1-2)Man(a1-3)[GlcNAc(b1-3)Gal(b1-4)GlcNAc(b1-3)Gal(b1-4)GlcNAc(b1-3)Gal(b1-4)GlcNAc(b1-2)Man(a1-6)]Man(b1-4)GlcNAc(b1-4)GlcNAc
In short: as §1

[17] = target: GlcNAc(b1-3)Gal(b1-4)GlcNAc(b1-3)Gal(b1-4)GlcNAc(b1-3)Gal(b1-4)GlcNAc(b1-2)Man(a1-3)[GlcNAc(b1-3)Gal(b1-4)GlcNAc(b1-3)Gal(b1-4)GlcNAc(b1-3)Gal(b1-4)GlcNAc(b1-2)Man(a1-6)]Man(b1-4)GlcNAc(b1-4)[Fuc(a1-6)]GlcNAc
In short: as §1

[18] = target: GlcNAc(b1-3)Gal(b1-4)GlcNAc(b1-3)Gal(b1-4)GlcNAc(b1-3)Gal(b1-4)GlcNAc(b1-2)[GlcNAc(b1-3)Gal(b1-4)GlcNAc(b1-3)Gal(b1-4)GlcNAc(b1-3)Gal(b1-4)GlcNAc(b1-6)]Man(a1-6)[GlcNAc(b1-3)Gal(b1-4)GlcNAc(b1-3)Gal(b1-4)GlcNAc(b1-3)Gal(b1-4)GlcNAc(b1-2)Man(a1-3)]Man(b1-4)GlcNAc(b1-4)[Fuc(a1-6)]GlcNAc
In short: as §1

[19] = target: GlcNAc(b1-3)Gal(b1-4)GlcNAc(b1-3)Gal(b1-4)GlcNAc(b1-3)Gal(b1-4)GlcNAc(b1-3)Gal(b1-4)GlcNAc(b1-2)Man(a1-3)[GlcNAc(b1-3)Gal(b1-4)GlcNAc(b1-3)Gal(b1-4)GlcNAc(b1-3)Gal(b1-4)GlcNAc(b1-3)Gal(b1-4)GlcNAc(b1-2)Man(a1-6)]Man(b1-4)GlcNAc(b1-4)GlcNAc
In short: as §1

[20] = target: GlcNAc(b1-3)Gal(b1-4)GlcNAc(b1-3)Gal(b1-4)GlcNAc(b1-3)Gal(b1-4)GlcNAc(b1-3)Gal(b1-4)GlcNAc(b1-2)Man(a1-3)[GlcNAc(b1-3)Gal(b1-4)GlcNAc(b1-3)Gal(b1-4)GlcNAc(b1-3)Gal(b1-4)GlcNAc(b1-3)Gal(b1-4)GlcNAc(b1-2)Man(a1-6)]Man(b1-4)GlcNAc(b1-4)[Fuc(a1-6)]GlcNAc
In short: as §1

[21] = target: GlcNAc(b1-3)Gal(b1-4)GlcNAc(b1-3)Gal(b1-4)GlcNAc(b1-3)Gal(b1-4)GlcNAc(b1-3)Gal(b1-4)GlcNAc(b1-2)[GlcNAc(b1-3)Gal(b1-4)GlcNAc(b1-3)Gal(b1-4)GlcNAc(b1-3)Gal(b1-4)GlcNAc(b1-3)Gal(b1-4)GlcNAc(b1-6)]Man(a1-6)[GlcNAc(b1-3)Gal(b1-4)GlcNAc(b1-3)Gal(b1-4)GlcNAc(b1-3)Gal(b1-4)GlcNAc(b1-3)Gal(b1-4)GlcNAc(b1-2)Man(a1-3)]Man(b1-4)GlcNAc(b1-4)[Fuc(a1-6)]GlcNAc
In short: as §1

[22] = target: GlcNAc(b1-3)Gal(b1-4)GlcNAc(b1-3)Gal(b1-4)GlcNAc(b1-3)GalNAc
In short: as §1

[23] = target: GlcNAc(b1-3)Gal(b1-4)GlcNAc(b1-3)GalNAc
In short: as §1

[24] = target: GlcNAc(b1-3)Gal(b1-4)GlcNAc(b1-3)[GlcNAc(b1-3)Gal(b1-4)GlcNAc(b1-3)]GalNAc
In short: as §1

[25] = target: GlcNAc(b1-3)Gal(b1-4)GlcNAc(b1-6)[Gal(b1-3)]GalNAc
In short: as §1

[26] = target: GlcNAc(b1-3)Gal(b1-4)GlcNAc(b1-6)[GlcNAc(b1-3)Gal(b1-3)]GalNAc
In short: as §1

[27] = target: GlcNAc(b1-3)Gal(b1-4)GlcNAc(b1-6)[GlcNAc(b1-3)]Gal(b1-4)GlcNAc
In short: as §1

GlcNAc(b1-3)GalNAc = target: GlcNAc(b1-3)GalNAc
In short: as §1

GlcNAc(b1-3)Man = target: GlcNAc(b1-3)Man
In short: as §1

[28] = target: GlcNAc(b1-3)[GlcNAc(b1-4)][GlcNAc(b1-6)]GlcNAc
In short: as §1

[29] = target: GlcNAc(b1-3)[GlcNAc(b1-6)]Gal(b1-4)GlcNAc
In short: as §1

[30] = target: GlcNAc(b1-3)[GlcNAc(b1-6)]GalNAc
In short: as §1

[31] = target: GlcNAc(b1-4)Gal(b1-4)GlcNAc
In short: as §1

GlcNAc(b1-4)GlcNAc = target: GlcNAc(b1-4)GlcNAc
In short: as §1

[32] = target: GlcNAc(b1-4)GlcNAc(b1-4)GlcNAc
In short: as §1

B1: AAL (Aleuria aurantia) (protein)
chain: MPTEFLYTSKIAAISWAATGGRQQRVYFQDLNGKIREAQRGGDNPWTGGSSQNVIGEAKLFSPLAAVTWKSAQGIQIRVYCVNKDNILSEFVYDGSKWITGQLGSVGVKVGSNSKLAALQWGGSESAPPNIRVYYQKSNGSGSSIHEYVWSGKWTAGASFGSTVPGTGIGATAIGPGRLRIYYQATDNKIREHCWDSNSWYVGGFSASASAGVSIAAISWGSTPQIRVYWQKGREELYEAAYGGSWNTPGQIKDASRPTPSLPDTFIAANSSGNIDISVFFQASGVSLQQWQWISGKGWSIGAVVPTGTPAGW
glycan array binding signal (z-score) [1]: -0.312 | glycan array binding signal (z-score) [2]: -0.314 | glycan array binding signal (z-score) [3]: -0.017 | glycan array binding signal (z-score) [4]: -0.297 | glycan array binding signal (z-score) [5]: 0.848 | glycan array binding signal (z-score) [6]: -0.315 | glycan array binding signal (z-score) (GlcNAc(b1-3)Fuc): 2.49 | glycan array binding signal (z-score) (GlcNAc(b1-3)Gal): -0.318 | glycan array binding signal (z-score) [7]: -0.311 | glycan array binding signal (z-score) (GlcNAc(b1-3)Gal(b1-4)Glc): -0.317 | glycan array binding signal (z-score) [8]: -0.321 | glycan array binding signal (z-score) [9]: -0.276 | glycan array binding signal (z-score) [10]: 2.41 | glycan array binding signal (z-score) [11]: -0.242 | glycan array binding signal (z-score) [12]: -0.318 | glycan array binding signal (z-score) [13]: -0.108 | glycan array binding signal (z-score) [14]: 2.92 | glycan array binding signal (z-score) [15]: 0.179 | glycan array binding signal (z-score) [16]: -0.262 | glycan array binding signal (z-score) [17]: 1.82 | glycan array binding signal (z-score) [18]: -0.085 | glycan array binding signal (z-score) [19]: -0.259 | glycan array binding signal (z-score) [20]: 1.97 | glycan array binding signal (z-score) [21]: -0.25 | glycan array binding signal (z-score) [22]: -0.308 | glycan array binding signal (z-score) [23]: -0.305 | glycan array binding signal (z-score) [24]: -0.276 | glycan array binding signal (z-score) [25]: -0.31 | glycan array binding signal (z-score) [26]: -0.284 | glycan array binding signal (z-score) [27]: -0.31 | glycan array binding signal (z-score) (GlcNAc(b1-3)GalNAc): -0.321 | glycan array binding signal (z-score) (GlcNAc(b1-3)Man): -0.306 | glycan array binding signal (z-score) [28]: -0.327 | glycan array binding signal (z-score) [29]: -0.322 | glycan array binding signal (z-score) [30]: -0.323 | glycan array binding signal (z-score) [31]: -0.334 | glycan array binding signal (z-score) (GlcNAc(b1-4)GlcNAc): -0.324 | glycan array binding signal (z-score) [32]: -0.328
